# Test results reported in a collection of fitness landscapes (doi:10.1038/s41467-024-54723-y).
# Over roughly 18,000 sequences, “TetR repression strength (sort-seq, GFP reporter)” has its median near 0.23; the highest 2% begin near 0.68. Some of the results follow.
# Target: TetR (class B, Tn10) (UniProt P04483)
# Test: TetR repression strength (sort-seq, GFP reporter) (relative to tetO2 = 1); higher = stronger repression
# Settings: E. coli
# How it was run: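 Repression strength was calculated by subtracting the read-weighted mean bin from the top bin index plus one and dividing by the unaltered operator's value. The plasmid library was low-copy in E. coli SIG10-MAX, with eight randomized operator positions between a constitutive promoter and sfGFP and constitutive TetR. Cultures grew 5 h at 37 °C in LB containing 50 µg/mL chloramphenicol before 10^6 cells were sorted by FACS into 13 fluorescence bins, each sequenced on Illumina. Three independent transformations were averaged for members having ≥30 reads in all replicates and a CV ≤0.5.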
# Chain of UniProt P04483 (P04483 whole entry): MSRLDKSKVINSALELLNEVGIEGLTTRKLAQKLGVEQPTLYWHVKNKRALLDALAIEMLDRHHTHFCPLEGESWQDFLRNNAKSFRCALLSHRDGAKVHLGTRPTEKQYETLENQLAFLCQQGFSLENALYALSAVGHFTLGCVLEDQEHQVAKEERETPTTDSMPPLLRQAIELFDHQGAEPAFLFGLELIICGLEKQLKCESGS
row,Sequence,TetR repression strength
1,TCCCGTCTAGTGCGTGAGA,0.0665
2,TCCCTGTAAGTAGGCGAGA,0.383
3,TCCCTAGAAGTTCATGAGA,0.00391
4,TCCCCGAGAGTGGATGAGA,0.136
5,TCCCGAACAGTCAAGGAGA,0.299
6,TCCCGTAAAGTAGGCGAGA,0.00592
7,TCCCAGGAAGTTTCGGAGA,0.175
8,TCCCTGGCAGTGCTTGAGA,0.325
9,TCCCGGTGAGTCTGAGAGA,0.219
10,TCCCCGATAGTTGCGGAGA,0.203
11,TCCCGTGGAGTGTCCGAGA,0.821
12,TCCCCCCAAGTGCCCGAGA,0.452
13,TCCCGACGAGTAAGTGAGA,0.0202
14,TCCCGCAGAGTACTTGAGA,0.285
15,TCCCGGTGAGTCGTGGAGA,0.0614
16,TCCCTGTGAGTCCGCGAGA,0.207
17,TCCCGTCGAGTAGGGGAGA,0.127
18,TCCCGTAGAGTATGCGAGA,0.214
19,TCCCACCCAGTCGGAGAGA,0.207
20,TCCCGATGAGTGGTAGAGA,0.34
21,TCCCGATAAGTGGAGGAGA,0.262
22,TCCCGCACAGTAAGGGAGA,0.169
23,TCCCGTAAAGTCGGGGAGA,0.18
24,TCCCCACGAGTCCTCGAGA,0.471
25,TCCCGCGCAGTGGGAGAGA,0.474
26,TCCCCTAGAGTGGAGGAGA,0.411

row,Sequence,TetR repression strength
1,TCCCGTGGAGTATCTGAGA,0.119
2,TCCCTTGAAGTTTGCGAGA,0.292
3,TCCCCACGAGTGGTAGAGA,0.0708
4,TCCCGATAAGTGACAGAGA,0.631
5,TCCCAGAGAGTGGAGGAGA,0.189
6,TCCCCGGAAGTCGGCGAGA,0.242
7,TCCCGTGAAGTTGGGGAGA,0.159
8,TCCCCATTAGTGTTCGAGA,0.262
9,TCCCTTCAAGTTTTGGAGA,0.327
10,TCCCGTCCAGTGTAGGAGA,0.0394
11,TCCCGAGGAGTCAGAGAGA,0.217
12,TCCCCATAAGTGGACGAGA,0.0617
13,TCCCCAGCAGTTGGTGAGA,0.35
14,TCCCGAAAAGTGTATGAGA,0.176
15,TCCCAGGCAGTTCGAGAGA,0.361
16,TCCCTTGGAGTTCGGGAGA,0.162
17,TCCCTCTAAGTTGATGAGA,0.795
18,TCCCGCCAAGTGGAGGAGA,0.229
19,TCCCTCAGAGTCGTCGAGA,0.248
20,TCCCGAGAAGTTGTAGAGA,0.246
21,TCCCCGCCAGTGAGCGAGA,0.222
22,TCCCGCCTAGTCGGGGAGA,0.416
23,TCCCCGAGAGTGGGGGAGA,0.113
24,TCCCAAGTAGTGGCAGAGA,0.359
25,TCCCTATTAGTGGTGGAGA,0.0415
26,TCCCTGGTAGTTGGGGAGA,0.205

row,Sequence,TetR repression strength
1,TCCCTAGGAGTGCAAGAGA,0.482
2,TCCCTATGAGTCAAGGAGA,0.359
3,TCCCCGGGAGTACGGGAGA,0.135
4,TCCCAGAAAGTGGCAGAGA,0.535
5,TCCCGTCGAGTGTGCGAGA,0.338
6,TCCCAGACAGTATAAGAGA,0.233
7,TCCCACACAGTTATCGAGA,0.244
8,TCCCGTGGAGTCGAGGAGA,0.539
9,TCCCGATCAGTCGGGGAGA,0.213
10,TCCCACGTAGTCCCGGAGA,0.207
11,TCCCCGATAGTGGGCGAGA,0.149
12,TCCCGATTAGTTCAAGAGA,0.438
13,TCCCGATAAGTCGGAGAGA,0.181
14,TCCCCCGGAGTGGCCGAGA,0.24
15,TCCCATAAAGTAAAAGAGA,0.365
16,TCCCAAAGAGTGCTGGAGA,0.172
17,TCCCGGACAGTACATGAGA,0.331
18,TCCCCTGGAGTAAGGGAGA,0.193
19,TCCCGTTCAGTTCAGGAGA,0.0302
20,TCCCGGCTAGTCGGGGAGA,0.204
21,TCCCGAGGAGTAGATGAGA,0.118
22,TCCCCGGGAGTACATGAGA,0.132
23,TCCCGCTAAGTTGGGGAGA,0.155
24,TCCCAGGCAGTGCCGGAGA,0.748
25,TCCCTGCTAGTAGTGGAGA,0.147
26,TCCCTGGGAGTGGCCGAGA,0.217

row,Sequence,TetR repression strength
1,TCCCGGGGAGTGGTTGAGA,0.333
2,TCCCTTACAGTCCTGGAGA,0.471
3,TCCCCTGAAGTGCAAGAGA,0.354
4,TCCCGTCCAGTGCTTGAGA,0.915
5,TCCCTATCAGTTGAAGAGA,0.55
6,TCCCAAAAAGTGCTCGAGA,0.199
7,TCCCTCATAGTGTAAGAGA,0.205
8,TCCCCAGAAGTCGTCGAGA,0.223
9,TCCCAGTTAGTGCGAGAGA,0.565
10,TCCCACTGAGTGCGGGAGA,0.426
11,TCCCATTTAGTTTGTGAGA,0.355
12,TCCCGAGTAGTAGACGAGA,0.326
13,TCCCAAGCAGTCATGGAGA,0.206
14,TCCCTGAGAGTAAAGGAGA,0.296
15,TCCCGATTAGTATGGGAGA,0.228
16,TCCCGAGGAGTTCGAGAGA,0.226
17,TCCCCATCAGTAAACGAGA,0.221
18,TCCCTCAGAGTTGAAGAGA,0.0503
19,TCCCCACTAGTTCACGAGA,0.422
20,TCCCGTCTAGTCCGCGAGA,0.402
21,TCCCCTCAAGTAAGTGAGA,0.116
22,TCCCCGTGAGTACACGAGA,0.255
23,TCCCTGCAAGTACTCGAGA,0.341
24,TCCCCTGTAGTGATAGAGA,0.387
25,TCCCATCGAGTGGGTGAGA,0.34
26,TCCCTAGCAGTCTTGGAGA,0.0869

row,Sequence,TetR repression strength
1,TCCCTACTAGTGTGGGAGA,0.229
2,TCCCAGGCAGTTTCCGAGA,0.0123
3,TCCCTTGAAGTATGTGAGA,0
4,TCCCCGATAGTGGCAGAGA,0.506
5,TCCCTGAAAGTATTAGAGA,0.263
6,TCCCAGGGAGTCGTAGAGA,0.289
7,TCCCTCGTAGTGTGAGAGA,0.34
8,TCCCCAGCAGTGACGGAGA,0.286
9,TCCCTGGCAGTCCACGAGA,0.156
10,TCCCAATTAGTCGATGAGA,0.51
11,TCCCTGAAAGTGTACGAGA,0.0109
12,TCCCGGGGAGTCCGCGAGA,0.228
13,TCCCCTTGAGTGTTTGAGA,0.302
14,TCCCGCGCAGTTGAGGAGA,0.251
15,TCCCGCATAGTACCTGAGA,0.562
16,TCCCTTAGAGTTGCTGAGA,0.584
17,TCCCCCATAGTCGACGAGA,0.825
18,TCCCTACGAGTGGTCGAGA,0.204
19,TCCCCCGGAGTCGAGGAGA,0.203
20,TCCCTATTAGTGAAGGAGA,0.273
21,TCCCACAGAGTACTAGAGA,0.422
22,TCCCACTAAGTGCCAGAGA,0.21
23,TCCCGTACAGTGGTCGAGA,0.162
24,TCCCGGTAAGTAGAGGAGA,0.171
25,TCCCGACTAGTGTGGGAGA,0.274
26,TCCCCCTGAGTGGTGGAGA,0.359

row,Sequence,TetR repression strength
1,TCCCAGTTAGTGTTAGAGA,0.25
2,TCCCTAGGAGTGGGCGAGA,0.146
3,TCCCGCTGAGTACTCGAGA,0.5
4,TCCCCCAGAGTTCACGAGA,0.47
5,TCCCGGCCAGTTGCCGAGA,0.149
6,TCCCCCAAAGTGTTTGAGA,0.145
7,TCCCTGTGAGTGGGTGAGA,0.412
8,TCCCGGCCAGTGTCGGAGA,0.435
9,TCCCCGCGAGTCGCCGAGA,0.254
10,TCCCGGCTAGTCGCTGAGA,0.165
11,TCCCCTATAGTATTAGAGA,0.126
12,TCCCGCAAAGTCCGTGAGA,0.113
13,TCCCCGGGAGTCGGGGAGA,0.356
14,TCCCAATAAGTGTATGAGA,0.207
15,TCCCGACAAGTGAGTGAGA,0.163
16,TCCCCCACAGTACGAGAGA,0.115
17,TCCCATATAGTAGCGGAGA,0.191
18,TCCCGGGTAGTGGCCGAGA,0.153
19,TCCCTCAGAGTGGGTGAGA,0.0984
20,TCCCGGCGAGTTGTAGAGA,0.425
21,TCCCAGATAGTCGCGGAGA,0.108
22,TCCCCTCGAGTTCGGGAGA,0.178
23,TCCCTTGCAGTCCGCGAGA,0.258
24,TCCCGCTTAGTACATGAGA,0.012
25,TCCCGCGGAGTTAGGGAGA,0.207
26,TCCCCGACAGTTGCGGAGA,0.0545

row,Sequence,TetR repression strength
1,TCCCCGTTAGTTAGAGAGA,0.207
2,TCCCTGGGAGTCCGGGAGA,0.193
3,TCCCTACCAGTAAAAGAGA,0.273
4,TCCCCTGAAGTGGTAGAGA,0.393
5,TCCCGTCCAGTCTGAGAGA,0.152
6,TCCCTGTGAGTAAGCGAGA,0.178
7,TCCCCCCGAGTAGGGGAGA,0.138
8,TCCCATAAAGTGGGCGAGA,0.0878
9,TCCCTTAGAGTGGTCGAGA,0.215
10,TCCCTTACAGTGCGTGAGA,0.183
11,TCCCGTGCAGTGCTGGAGA,0.282
12,TCCCGGTTAGTGAAAGAGA,0.285
13,TCCCTTTTAGTCAATGAGA,0.285
14,TCCCTGGAAGTGATCGAGA,0.203
15,TCCCAGGTAGTAAGGGAGA,0.249
16,TCCCGTGTAGTGAGTGAGA,0.225
17,TCCCCATCAGTTCACGAGA,0.274
18,TCCCGGGGAGTGCACGAGA,0.193
19,TCCCCAGTAGTGTGTGAGA,0.417
20,TCCCTAAGAGTGACTGAGA,0.612
21,TCCCGTACAGTAGTCGAGA,0.269
22,TCCCGTTGAGTTTACGAGA,0.207
23,TCCCGTCGAGTGGCCGAGA,0.389
24,TCCCGTTCAGTATCGGAGA,0.241
25,TCCCCGTTAGTACACGAGA,0.162
26,TCCCCCAGAGTAGTTGAGA,0.471

row,Sequence,TetR repression strength
1,TCCCCTGGAGTTGGGGAGA,1.09
2,TCCCATGGAGTAGCGGAGA,0.297
3,TCCCGTTGAGTGTACGAGA,0.101
4,TCCCTCGAAGTTAGGGAGA,0.138
5,TCCCTAGGAGTCAGCGAGA,0
6,TCCCTTCTAGTCCTGGAGA,0.354
7,TCCCAAGTAGTGAAGGAGA,0.417
8,TCCCTGCGAGTGAAGGAGA,0.325
9,TCCCTCGGAGTAGACGAGA,0.198
10,TCCCATAAAGTCATTGAGA,0.452
11,TCCCAACTAGTATGAGAGA,0.361
12,TCCCTGATAGTTGGTGAGA,0.289
13,TCCCGTTAAGTCACGGAGA,0.18
14,TCCCTTCGAGTTCGTGAGA,0.32
15,TCCCAGTAAGTAGTAGAGA,0.213
16,TCCCCCACAGTGGGTGAGA,0.105
17,TCCCCGAGAGTTAGCGAGA,0.172
18,TCCCCGGGAGTAGAGGAGA,0.192
19,TCCCCGCGAGTGCTTGAGA,0.0403
20,TCCCCATGAGTACAAGAGA,0.341
21,TCCCACCTAGTTGCTGAGA,0.36
22,TCCCTTTCAGTCGAGGAGA,0.369
